{"source": "PubChem BioAssay AID686979", "about": "(National Center for Advancing Translational Sciences (NCATS), 2013)", "note": "“And” between values parts separate entries of the source, which are not always exact repeats. Equal entries are not always repeated. The campaign covered roughly 420,000 compounds. About 50,000 (12%) were called active. The shares of active, inactive and inconclusive entries below differ from those in the screen. Calls come from the whole dose curve; as a rule, active = well fitted inhibition curve with a large enough effect; inconclusive = small, poorly fitted or top-dose-only effect; inactive = flat fitted curve, though single readings scatter. Where the call is inconclusive, the potency comes from a doubtful curve fit. Potency is the fitted concentration of half-maximal effect; tags give direction and shape of the fitted curve."}
{"experiment": "qHTS for Inhibitors of human tyrosyl-DNA phosphodiesterase 1 (TDP1): qHTS in cells in presence of CPT; note: nearly all actives have a fitted effect of over 55% in size", "details": "chicken DT40 Tdp1-/-;hTDP1 cells + 20 nM CPT, ATP luminescence, 48 h; series mostly up to 46.2 µM", "method_in_brief": "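Chicken DT40 Tdp1-/- cells complemented with human TDP1, 400 cells/well, exposed to compounds plus 20 nM camptothecin for at least 48 h at 37 C; viability read as ATP content by CellTiter-Glo luminescence.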"}
{"smiles": "CC1(C)CC(=O)C2=C(C1)Nc1[nH]n(-c3ccccc3)c(=O)c1C2c1ccc2c(c1)OCO2", "note": "(stereo not drawn)", "Potency": "active: 7.31 µM"}
{"smiles": "Cc1cc(C)c2nc(SCC(=O)Nc3cc(C)on3)c(C#N)cc2c1", "Potency": "inconclusive: 9.2 µM [inhibitor, partial curve, poor fit]"}
{"smiles": "COc1ccc(C(CNS(=O)(=O)c2ccccc2)N2CCN(C)CC2)cc1", "note": "(stereo not drawn)", "Potency": "inactive"}
{"smiles": "COc1cc(NC(=S)NC(=O)c2c(OC)cccc2OC)ccc1NC(=O)c1cccs1", "Potency": "active: 10.3 µM"}
{"smiles": "Cn1c(CNc2ccccc2O)nc2ccccc21", "Potency": "inconclusive: 29.1 µM [inhibitor, single point]"}
{"smiles": "Fc1ccc(CNc2nc3c(-c4ccc(F)cc4)nnn3c3ccccc23)cc1", "Potency": "inactive"}
{"smiles": "COc1cc(OC)cc(C(=O)N[C@H](C(=O)N2CCc3ccccc32)C(C)C)c1", "Potency": "inconclusive: 29.1 µM [inhibitor, single point]"}
{"smiles": "CN(c1ccccc1)S(=O)(=O)c1cccc(NC(=O)CSc2nncs2)c1", "Potency": "active: 7.31 µM"}
{"smiles": "CCCCCN(C(=O)CCC(=O)OCc1cc(C(C)=O)ccc1OC)c1c(N)n(CCCC)c(=O)[nH]c1=O", "Potency": "inconclusive: 16.4 µM [inhibitor, single point]"}
{"smiles": "Cc1oc(-c2ccccc2)nc1CSc1nc2c(c(=O)[nH]1)CCC2", "Potency": "inconclusive: 29.1 µM [inhibitor, single point]"}
{"smiles": "CC1=C(C)/C(=N\\OS(=O)(=O)c2ccccc2)C=CC1=O", "Potency": "active: 0.562 µM"}
{"smiles": "CCCCOc1ccc(C(O)(CCN2CCOCC2)c2ccccc2)cc1", "note": "(stereo not drawn)", "Potency": "inconclusive: 25.9 µM [inhibitor, single point]"}
{"smiles": "CC1CC(C)CN(S(=O)(=O)c2ccc(F)c(C(=O)NC3CCCCC3C)c2)C1", "note": "(stereo not drawn)", "Potency": "inconclusive: 1.3 µM [inhibitor, full curve, poor fit]"}
{"smiles": "Cc1ccc(S(=O)(=O)N(C)c2c(C)ccc(S(=O)(=O)N3CCN(C=O)CC3)c2C)cc1", "Potency": "inconclusive: 16.4 µM [inhibitor, single point]"}
{"smiles": "Cc1ccc(S(=O)(=O)Nc2ccc3c4c(cccc24)CC3)c(C)c1", "Potency": "active: 14.6 µM"}
{"smiles": "Cc1nnc2c3ccccc3ccn12", "Potency": "inactive"}
{"smiles": "CC(C)(C)c1ccc(C(=O)N2CCN(CCNC(=O)C(=O)Nc3ccc(F)cc3)CC2)cc1", "Potency": "active: 16.4 µM"}
{"smiles": "CCCCSc1ncnc2c1sc1nc(N3CCOCC3)c3c(c12)CCCC3", "Potency": "inactive"}
{"smiles": "COc1cccc(/C=C/c2nc(C#N)c(N(C)Cc3ccccc3)o2)c1", "Potency": "inconclusive: 23.1 µM [inhibitor, single point]"}
{"smiles": "COc1ccc(/C=C/c2c(-c3cccc(C)c3)oc3ccc(-c4ccc5c(c4)OCO5)cc23)cc1", "Potency": "inactive"}
{"smiles": "COc1cc(NC(=O)C2(C)CCCN2C)cc(OC)c1OC", "note": "(stereo not drawn)", "Potency": "inactive"}
{"smiles": "COc1cc(C(=O)NCc2ccc3c(c2)CCN3C(=O)c2ccncc2)cc(OC)c1OC", "Potency": "inconclusive: 18.4 µM [inhibitor, single point]"}
{"smiles": "Cc1ccc(NC(=O)NCCc2c(C)nn(C)c2C)c(Cl)c1", "Potency": "inactive"}
{"smiles": "NC(=O)C1CCN(C(=O)C2CC(=O)N(Cc3ccccc3)C2)CC1", "note": "(stereo not drawn)", "Potency": "inactive"}
{"smiles": "Cc1ccccc1OCc1nnc(SCC(=O)O)n1Cc1ccccc1", "Potency": "inconclusive: 5.17 µM [inhibitor, partial curve]"}
{"smiles": "COc1ccc(NC(=O)CCCNC(=O)c2ccc(Cl)cc2)cc1S(=O)(=O)N1CCOCC1", "Potency": "inactive"}
{"smiles": "COc1ccc(C(=O)/C=C/c2ccc(O)cc2)c(O)c1CC=C(C)C", "Potency": "active: 13 µM"}
{"smiles": "Cc1[nH]nc2c1C(C(C)C)C(C#N)=C(N)O2", "note": "(stereo not drawn)", "Potency": "inconclusive: 29.1 µM [inhibitor, single point]"}
{"smiles": "COc1ccc(N2CCN(C(=O)c3ccc(Cn4nc(C)c([N+](=O)[O-])c4C)o3)CC2)cc1", "Potency": "inconclusive: 18.4 µM [inhibitor, partial curve, poor fit]"}
{"smiles": "O=S1(=O)[C@H]2C[C@@H]3CC[C@]2(CN1Cc1cccc(F)c1)O3", "Potency": "inactive"}
{"smiles": "O=C(COC(=O)c1ccccc1NC(=O)c1ccco1)NCCC1=CCCCC1", "Potency": "inconclusive: 23.1 µM [inhibitor, single point]"}
{"smiles": "COCCOC(=O)c1c(NC(=O)CN2CCc3ccccc32)sc(C(N)=O)c1C", "Potency": "inconclusive: 18.4 µM [inhibitor, single point]"}
{"smiles": "Cc1cc(Cl)ccc1OCCCC(=O)N1CCCc2ccccc21", "Potency": "inconclusive: 20.6 µM [inhibitor, single point]"}
{"smiles": "Cc1ccc(NC(=O)c2cc(-c3ccc4c(c3)OCO4)on2)cc1", "Potency": "inconclusive: 32.6 µM [inhibitor, single point] and inconclusive: 20.6 µM [inhibitor, single point]"}
{"smiles": "Cc1cccc(-n2c(N)c(-c3nc4ccccc4n3C)c3nc4ccccc4nc32)c1", "Potency": "inconclusive: 25.9 µM [inhibitor, single point]"}
{"smiles": "O=C(CCl)N1CCN(C(=O)C2COc3ccccc3O2)CC1", "note": "(stereo not drawn)", "Potency": "inconclusive: 5.8 µM [inhibitor, full curve, poor fit]"}
{"smiles": "CCOc1ccc(CNC(=O)COc2cc(=O)n(C)c3ccccc23)cc1", "Potency": "inactive"}
{"smiles": "Cc1cccc(C)c1-n1c(C)cc(/C=N/NC(N)=S)c1C", "Potency": "active: 7.31 µM"}
{"smiles": "O=C(NCC(c1cccs1)N1CCOCC1)c1cn(-c2ccccc2)nc1-c1ccc(Cl)cc1", "note": "(stereo not drawn)", "Potency": "inconclusive: 18.4 µM [inhibitor, single point]"}
{"smiles": "CCOC(=O)c1c(C)c(C(=O)N2CCc3ccccc3C2)c(C)n1CC", "Potency": "inconclusive: 29.1 µM [inhibitor, single point]"}
{"smiles": "O=C(NC(=S)Nc1ccccc1O)c1ccccc1Cl", "Potency": "inactive"}
{"smiles": "CCCN1CCN(CCCNC(=O)Cn2nc(C)n3c(cc4cc(F)ccc43)c2=O)CC1", "Potency": "inactive"}
{"smiles": "Cc1ccc(-c2csc(/C(C#N)=C/Nc3ccccc3SC(F)(F)F)n2)cc1", "Potency": "inconclusive: 16.4 µM [inhibitor, partial curve]"}
{"smiles": "COc1ccc(NC(=O)c2ccc(S(=O)(=O)N3CCCC3)cc2)cc1OC", "Potency": "inconclusive: 23.1 µM [inhibitor, single point]"}
{"smiles": "COc1cc(NC(=O)c2cccs2)c(C(=O)OCC(=O)NCc2ccccc2)cc1OC", "Potency": "inconclusive: 29.1 µM [inhibitor, single point]"}
{"smiles": "Cc1cccc2c1-c1sc(C(=O)NCc3ccccc3Cl)cc1CO2", "Potency": "active: 16.4 µM"}
{"smiles": "CCCCN1C(=O)C(O)(c2ccccc2)c2cc(Br)ccc21", "note": "(stereo not drawn)", "Potency": "inconclusive: 29.1 µM [inhibitor, single point]"}
{"smiles": "COC(=O)CSc1nc2ccc(NC(=O)CSc3nnnn3Cc3ccccc3)cc2s1", "Potency": "inconclusive: 23.1 µM [inhibitor, partial curve]"}
{"smiles": "COc1ccc(-c2csc(N(CCCN3CCOCC3)C(=O)c3ccco3)n2)cc1", "Potency": "active: 18.4 µM"}
{"smiles": "Cc1ccccc1N(CC(=O)N/N=C/c1cc(Br)c(C)o1)S(C)(=O)=O", "Potency": "inactive"}
{"smiles": "O=C(CSc1cc(Cl)ccc1Cl)NCC1CCCO1", "note": "(stereo not drawn)", "Potency": "inactive"}
{"smiles": "Cc1ccc(OC2CCN(C(=O)[C@H]3O[C@@H](n4ccc(=O)[nH]c4=O)[C@H](O)[C@@H]3O)CC2)cc1", "Potency": "inactive"}
{"smiles": "COCCN(Cc1ccccc1)C(=O)c1cccc(S(=O)(=O)N(C)c2c(C)n(C)n(-c3ccccc3)c2=O)c1", "Potency": "inconclusive: 29.1 µM [inhibitor, single point]"}
{"smiles": "COc1ccc(C(=O)C(CN2CCCC2)c2ccccc2)cc1", "note": "(stereo not drawn)", "Potency": "active: 3.98 µM"}
{"smiles": "COC(=O)c1sccc1NC(=O)Nc1cc(C)cc(C)c1", "Potency": "inconclusive: 14.6 µM [inhibitor, single point]"}
{"smiles": "O=C(O)c1cc2ccccc2cn1", "Potency": "inactive"}
{"smiles": "CCc1cc(-c2n[nH]c(=S)n2C(C)c2ccccc2)cs1", "note": "(stereo not drawn)", "Potency": "inconclusive: 29.1 µM [inhibitor, single point]"}
{"smiles": "COC(=O)[C@@]1(Cc2ccccc2)[C@H]2C(=O)N(C)C(=O)[C@H]2[C@H]2CN=C(SCc3ccc(Cl)cc3)N21", "Potency": "active: 13 µM"}
{"smiles": "Cn1c(SCC(=O)NNC(=O)c2ccccc2O)nnc1-c1ccccc1", "Potency": "inconclusive: 18.4 µM [inhibitor, single point]"}
{"smiles": "Cc1cc(C)n2c(SCC(=O)Nc3c(C)n(C)n(-c4ccccc4)c3=O)nnc2n1", "Potency": "inactive"}
{"smiles": "COc1ccccc1/C=C\\C=N\\n1c(-c2ccc(Cl)cc2Cl)n[nH]c1=S", "Potency": "inactive"}
{"smiles": "CC1CCC(NC(=O)c2[nH]c(C(F)(F)F)nc2-c2ccccc2)CC1", "note": "(stereo not drawn)", "Potency": "inactive"}
{"smiles": "CCOCCn1c(=O)c2c(nc3n2CC(C)CN3Cc2ccccc2)n(C)c1=O", "note": "(stereo not drawn)", "Potency": "inconclusive: 29.1 µM [inhibitor, single point]"}
{"smiles": "COc1ccc(/C=C2\\CCC/C(=C\\c3ccc(OC)c(OC)c3OC)C2=O)c(OC)c1OC", "Potency": "inconclusive: 20.6 µM [inhibitor, single point]"}
{"smiles": "CCC1CCCCN1C(=O)CSc1nc2c(c(=O)n(C)c(=O)n2C)n1C", "note": "(stereo not drawn)", "Potency": "inactive"}
{"smiles": "Cc1ccc2cc(CN(CC3CCCO3)C(=S)NCc3ccco3)c(=O)[nH]c2c1", "note": "(stereo not drawn)", "Potency": "inactive"}
{"smiles": "COc1ccc(CNCc2cc3c(C(C)(C)C)nn(-c4ccccc4)c3[nH]c2=O)cc1", "Potency": "active: 25.9 µM"}
{"smiles": "COC(=O)CN(c1cc(Cl)ccc1OC)S(=O)(=O)c1ccc(C)cc1", "Potency": "inconclusive: 29.1 µM [inhibitor, single point]"}
{"smiles": "CCCCCCCCCCCCCCCC[N+](C)(C)Cc1ccccc1", "Potency": "active: 1.19 µM"}
{"smiles": "O=C(c1cc(-c2ccccc2)nc2ccccc12)N1CCN(c2ccccc2O)CC1", "Potency": "active: 16.4 µM"}
{"smiles": "Cc1cccc(-n2ncc3c(N(CCO)CCO)ncnc32)c1", "Potency": "inactive"}
{"smiles": "O=C(Cn1c(=O)n(CCC(=O)N2CCCCC2)c(=O)c2sccc21)NCc1ccccc1", "Potency": "inactive"}
{"smiles": "COc1ccccc1N1CCN(C(=O)CSc2nc3ccccc3c(=O)n2CC2CCCO2)CC1", "note": "(stereo not drawn)", "Potency": "inconclusive: 29.1 µM [inhibitor, single point]"}
